Laboratory results published in PMC4336329 (PLoS ONE, 2015).
About 2,200 (0.71%) of roughly 310,000 compounds showed an effect of 50% or more. Effects have a minus sign here. The list shows a part of the results.

What follows are compounds tested against human ether-à-go-go-related gene (hERG) potassium channel (human, UniProt Q12809) (assay: primary screen, population patch clamp on CHO cells stably expressing hERG).
Sequence of human ether-à-go-go-related gene (hERG) potassium channel (Q12809 whole entry, looked up): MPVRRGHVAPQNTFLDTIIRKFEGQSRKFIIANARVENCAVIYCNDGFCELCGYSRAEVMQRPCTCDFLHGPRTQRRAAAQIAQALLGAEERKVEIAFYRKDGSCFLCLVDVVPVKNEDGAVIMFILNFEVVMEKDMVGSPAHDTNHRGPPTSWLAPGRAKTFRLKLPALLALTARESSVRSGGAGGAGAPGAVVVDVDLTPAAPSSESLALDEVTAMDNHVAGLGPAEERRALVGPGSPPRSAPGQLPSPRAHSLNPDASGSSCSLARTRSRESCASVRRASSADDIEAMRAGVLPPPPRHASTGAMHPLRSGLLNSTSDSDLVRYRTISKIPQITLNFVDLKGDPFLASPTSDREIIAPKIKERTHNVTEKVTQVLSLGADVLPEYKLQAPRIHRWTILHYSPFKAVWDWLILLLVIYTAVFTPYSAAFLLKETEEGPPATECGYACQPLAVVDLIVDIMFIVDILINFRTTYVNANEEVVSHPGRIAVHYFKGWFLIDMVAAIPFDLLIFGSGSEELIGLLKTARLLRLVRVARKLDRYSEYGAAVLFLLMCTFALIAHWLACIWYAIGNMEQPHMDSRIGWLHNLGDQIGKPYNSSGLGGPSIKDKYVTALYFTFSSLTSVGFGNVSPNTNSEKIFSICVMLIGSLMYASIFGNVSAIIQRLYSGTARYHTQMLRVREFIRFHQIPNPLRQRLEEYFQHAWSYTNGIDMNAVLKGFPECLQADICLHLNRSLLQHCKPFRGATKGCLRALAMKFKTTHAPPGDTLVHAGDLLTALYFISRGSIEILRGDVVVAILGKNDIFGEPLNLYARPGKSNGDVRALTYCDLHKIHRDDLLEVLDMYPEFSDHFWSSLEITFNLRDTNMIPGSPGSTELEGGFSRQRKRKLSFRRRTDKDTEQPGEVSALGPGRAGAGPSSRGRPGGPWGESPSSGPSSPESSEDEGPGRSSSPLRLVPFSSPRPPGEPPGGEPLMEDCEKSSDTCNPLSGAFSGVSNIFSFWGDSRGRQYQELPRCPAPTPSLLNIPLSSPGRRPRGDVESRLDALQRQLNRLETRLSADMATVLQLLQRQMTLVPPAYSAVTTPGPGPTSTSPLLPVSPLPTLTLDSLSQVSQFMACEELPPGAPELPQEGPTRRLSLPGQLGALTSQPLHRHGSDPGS

Compound | hERG current change (%, negative = inhibition) at 1uM [%]
Oc1ccc2c(c1)c1c3n2CCNC3CCC1 (stereo not shown) | 8.98
Cc1ccc(-c2nn(-c3ccccc3)cc2C(=O)Nc2ccc(C(=O)O)cc2)cc1 | 11.1
COc1cc(C(=O)O[C@H]2CC(C)=CC[C@@]3(C)CC[C@@](O)(C(C)C)[C@H]23)ccc1O | 6.56
CCCc1cc(=O)[nH]c(SCc2cccc(C)c2)n1 | 19.1
COc1cc(SC)ccc1C(=O)N(C)Cc1ccccc1 | -1.12
COc1cccc(C(=O)NNC(=O)c2ccc(NS(=O)(=O)c3cccs3)cc2)c1OC | 3.81
COC(=O)C1=C(C)Nc2nc3ccccc3n2C1c1cc(OC)c(OC)c(OC)c1 (stereo not shown) | 3.97
CC(=O)c1ccc(NC(=O)Nc2cccc(Cl)c2)cc1 | 11.4
O=C(NCC(=O)N1CCN(S(=O)(=O)c2ccc3c(c2)OCCO3)CC1)c1ccccc1Cl | 14.5
Cc1nn(CCO)c(N)c1C1(O)C(=O)Nc2c(Cl)cc(Cl)cc21 (stereo not shown) | 17.3
CCOC(=O)C1CCN(C(=O)Nc2cc(Cl)cc(Cl)c2)CC1 | 4.53
Cn1c(Cc2cccs2)nnc1SC/C=C/c1ccccc1 | 8.27
O=C(CCN1C(=O)c2ccccc2C1=O)NNC(=O)c1ccc(Cl)cc1Cl | 13.6
Cc1cc(C(F)(F)F)nc(Nc2nc(C)c3ccccc3n2)n1 | 15.3
CC(C)N1CCc2c(sc(NC(=O)c3ccc4ccccc4c3)c2C(N)=O)C1.Cl | 4
O=C1C(NS(=O)(=O)c2ccc(Br)cc2)=C(N2CCCCC2)C(=O)c2ccccc21 | 2.82
Cc1nn(C)c(C)c1C(C)NC(=O)c1ccc(OC2CCN(Cc3ccccn3)CC2)cc1 (stereo not shown) | 10.5
C=CCc1cccc2cc(C(=O)Nc3cccc(C(=O)O)c3)c(=O)oc12 | 3.48
CC(=O)Nc1ccc(Nc2nc(-c3sc(C)nc3C)cs2)cc1 | 12.1
NNC(=O)c1ccc(Cn2cc(Br)cn2)cc1 | 3.77
CCOc1ccc(N2C(=O)CC(NCCNc3ccc(C(=O)c4cccs4)cc3)C2=O)cc1 (stereo not shown) | -48.7
Cn1c(C(=O)N2CCOCC2)cc2c(=O)n3ccccc3nc21 | 14.4

Compound | hERG current change (%, negative = inhibition) at 1uM [%]
COc1ccc(Nc2nc(N3CCCC3)nc(N3CCCC3)n2)c(OC)c1 | -7.81
COCCCN(C(=O)c1ccc(N2CCCC2=O)cc1)c1c(N)n(Cc2ccccc2)c(=O)[nH]c1=O | 17.4
COc1cc(C(=O)N/N=C/c2ccc(OC(=O)c3cccc(C)c3)cc2)ccc1O | 13.5
O=C(Nc1ccc(Br)cc1)c1ccc(N2C(=O)C3CC=C(Cl)CC3C2=O)cc1 (stereo not shown) | 10.9
CCOC(=O)C1CCN(C(=O)c2cc(COc3ccc(OC)c4ccccc34)on2)CC1 | 8.12
CN(C)c1ccc(P(=O)(OC2CCCCC2)C(O)c2ccccn2)cc1 (stereo not shown) | 12.4
Cn1c(=O)c2c(ncn2CC(=O)NC(C)(C)C)n(C)c1=O | 12.2
Cc1cc(Cl)ccc1NC(=S)NCCc1ccc(S(N)(=O)=O)cc1 | 0.714
Cl.Nc1ccc(Cc2ccccn2)cc1 | 16.8
CCCn1c(=O)c(C(=O)NCCCc2ccccc2)c(O)c2ccccc21 | 17.8
COc1ccc(CCN2CC(C(=O)N(C)CCOc3ccccc3)CCC2=O)cc1 (stereo not shown) | -34.3
Cc1nn(C)c(Cl)c1S(=O)(=O)N[C@@H](c1ccccc1)[C@]1(C)C[C@H]1[C@@H](C)C(=O)Nc1ccc2ccccc2c1 | 19
CC1CCC(C(C)C)C(OC(=O)Cn2nnc3c(cnn3-c3ccccc3)c2=O)C1 (stereo not shown) | 6.96
COc1ccc(OC)c(C2N(c3cc(C)on3)C(=O)C3CCCN32)c1 (stereo not shown) | 12
Cc1ccc(-n2c(SCC(=O)Nc3cc(C)on3)nc3c(c2=O)SC(C)C3)cc1 (stereo not shown) | -3.67
CCCCC(CC)C(=O)Nc1cc(C(=O)NCc2ccc(C)cc2)ccc1N1CCC2(CC1)CC(c1cccc(Br)c1)=NO2 (stereo not shown) | 19.6
O=C(COc1ccc(Cl)cc1)NCc1n[nH]c(=O)c2ccccc12 | 11.3
CCOc1ccccc1NC(=O)CSc1n[nH]c(N)n1 | 16.7
CSc1cccc(NC(=O)c2ccc(NC3=NC4CS(=O)(=O)CC4S3)cc2)c1 (stereo not shown) | 7.67
CN1CCN(C(=O)C2=C[C@H](C3CC3)C[C@H](OCc3ccc(CO)cc3)O2)CC1 | 11.4
CC(C)CN(C(=O)c1ccc(S(=O)(=O)N2CCCC2)cc1)C1CCS(=O)(=O)C1 (stereo not shown) | 5.45
CCOCC(=O)Nc1ccc(S(=O)(=O)N2CCOCC2)cc1 | 11.2

Compound | hERG current change (%, negative = inhibition) at 1uM [%]
O=[N+]([O-])c1ccc(Sc2ncc3ccccn23)nc1 | -3.11
CC(C)(C)n1nc2c(c1NC(=O)c1ccc([N+](=O)[O-])cc1)CS(=O)(=O)C2 | 8.52
CCCCC(=O)NN(C)c1nc(-c2ccccc2)nnc1C(F)(F)F | 7.5
CSc1ccccc1NC(=O)CN(C1CCCCC1)S(C)(=O)=O | 16.6
Cc1ccc(C(=O)N/C(=C/c2cccnc2)C(=O)O)cc1 | 10.3
O=C(CNC(=O)c1ccc(-c2ccccc2)cc1)Nc1ccc(S(=O)(=O)Nc2ncccn2)cc1 | 8.28
Cn1c(SCC(=O)N2CCc3ccccc3C2)nnc1-c1ccncc1 | 1.28
N#Cc1c(-c2ccccc2)nc(N2CCN(Cc3ccccc3)CC2)[nH]c1=O | 8.95
Cn1c(C(=O)N2COCC2(C)C)cc2c(=O)n3ccccc3nc21 | 6.95
COc1cccc(CC(=O)OC(C)C(=O)Nc2ncc(Cl)cc2Cl)c1 (stereo not shown) | 8.54
CC(C)[C@H](NS(=O)(=O)c1ccccc1)C(=O)OCC(=O)Nc1ccc2c(c1)OCO2 | 12.1
O=C(Cc1cccs1)NCc1ccccc1F | -11.8
COc1ccc(C(=O)ON=C2CCN(c3ccc([N+](=O)[O-])cc3)CC2)cc1 | -57.7
O=S(=O)(c1ccc(F)cc1)N1CN2CCN(C2)C1 | 8.75
Cc1nnc(SCC(=O)NCc2cccs2)n1-c1ccccc1 | 11.1
CCn1cc([N+](=O)[O-])c(C(=O)N2N=C(c3ccc4ccccc4c3)CC2c2ccccc2O)n1 (stereo not shown) | 1.26
C/C(=N\Nc1ccc(C(=O)O)cc1)c1ccc(Br)cc1.O=S(=O)(O)O | 17.6
COc1ccc(NC(=O)CCN2C(=O)c3cccc([N+](=O)[O-])c3C2=O)cc1 | -1.59
Nc1ccccc1-c1ccccc1N | 13.2
COCCN(Cc1nc(C2(c3ccc(C)cc3)CCCC2)no1)C(C)C | 6.96
Cc1ccccc1C(=O)NNC(=O)CCC(=O)Nc1cccc(Cl)c1C | 7.64
COc1ccccc1NC(=O)COc1ccc(/C=N/NC(=O)CSCc2cc(C)cc(C)c2)cc1 | 14.5

Compound | hERG current change (%, negative = inhibition) at 1uM [%]
CSC1=NCCN1C(=O)c1ccc(S(=O)(=O)N2CCCC2)cc1 | 11.6
O=C(Nc1nccs1)c1cc(-c2ccncc2)nc2ccccc12 | 17.4
COc1cc(-c2cc(N)n(S(=O)(=O)c3ccccc3)n2)cc(OC)c1OC | 19.1
CCCC(C)n1[nH]c(=O)c2c1NC(=O)CSC2c1ccc(OC)cc1 (stereo not shown) | 10.5
CCN1CCN(CC(=O)N2N=C(c3ccc(OC)cc3)CC2c2ccc(OC)cc2)C(=O)C1=O (stereo not shown) | 8.58
Cn1c(=O)c(-c2ccccc2)c(O)c2ccccc21 | 0.552
COc1ccc(Cl)cc1NC(=O)CSc1nnc(C2CC2)n1C | 12.3
COc1cc(CNCCc2ccc3c(c2)OCO3)cc(OC)c1OC.O=C(O)C(=O)O | 10.2
CCCCSc1nnc(-c2ccc(NC(C)=O)cc2)n1C | 3.34
C=C1CCN([C@@H](CC(C)C)C(=O)NN2CCOCC2)S(=O)(=O)c2ccccc21 | 9.07
CC1=C(C(=O)OCc2ccccc2)C(c2cccnc2)n2ncnc2N1 (stereo not shown) | 17.3
Cc1ccc(C(=O)Nc2ccc(N3CCOCC3)cc2)cc1 | 6.97
O=C(CSCc1ccccc1)Nc1ccc2c(c1)C(=O)NC2=O | 24.6
CCOC(=O)CC1C(=O)NCCN1S(=O)(=O)c1ccc(C)cc1 (stereo not shown) | 16.5
C/C(CC(=O)NCC(C)C)=N\NC(=O)COc1cc(C)c(Br)cc1Br | 1.09
COc1ccc(CNC(=O)C2CC(=O)N(c3ccc(OCC(=O)N4C(C)CCCC4C)cc3)C2)cc1 (stereo not shown) | -24.4
COc1ccc(CNC(=O)CCC(=O)n2ncc3cc(C)ccc32)cc1 | 2.16
CCc1ccc(N2CC(C(=O)OCc3csc(CC(=O)Nc4ccccc4C)n3)CC2=O)cc1 (stereo not shown) | 11
CC(=O)c1cccc(OCC(O)CNCCc2ccc(Cl)cc2)c1 (stereo not shown) | 10.6
